For 63 sequences, binding signal (RPM ratio (pull-down/input)) results are on record in publication PMC12820563.

Some of the results follow. The list includes weakly bound sequences.

For the test, the target named is T1, MBP-FoxP3dN (UniProt Q99JB6).
T1 sequence: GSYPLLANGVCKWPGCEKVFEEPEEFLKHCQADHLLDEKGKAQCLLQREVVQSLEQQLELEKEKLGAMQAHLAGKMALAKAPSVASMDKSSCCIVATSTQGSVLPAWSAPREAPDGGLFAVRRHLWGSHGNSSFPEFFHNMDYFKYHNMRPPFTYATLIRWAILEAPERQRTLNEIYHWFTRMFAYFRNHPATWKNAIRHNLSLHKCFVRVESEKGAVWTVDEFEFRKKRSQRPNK
Kind of test: PD-seq (MBP pull-down with sequencing). Conditions: 20 mM Tris-HCl pH 7.5, 100 mM NaCl, 1.5 mM MgCl2, 0.4 uM protein, 0.1 uM dsDNA library, 30 min, room temperature, amylose pull-down; high values mean tight binding; double strand, one strand shown.
Turning to “GATGATTGTTCTCCCAGCTGATGAATTTTACTGCTCGAGTAAACAAATTTTCCTAATCTTTCTGTTCAAGCGCCATCTAC”, the binding signal (RPM ratio (pull-down/input)) turned out to be 0.33. The figure for “GATGATTGTTCTCCCAGCTGATGAATTATGCTCATCGAGTAAACAAATTTTCCTAATCTTTCTGTTCAAGCGCCATCTAC” is 0.95; for “GATGATTGTTCTCCCAGCTGATGAATTCCGGTTTTCGAGTAAACAAATTTTCCTAATCTTTCTGTTCAAGCGCCATCTAC” it is 0.679. As for “GATGATTGTTCTCCCAGCTGATGAATTCCGAATTTCGAGTAAACAAATTTTCCTAATCTTTCTGTTCAAGCGCCATCTAC”, the figure is 1.44; as for “GATGATTGTTCTCCCAGCTGATGAATTCGTGATGTCGAGTAAACAAATTTTCCTAATCTTTCTGTTCAAGCGCCATCTAC”, 1.1. As for “GATGATTGTTCTCCCAGCTGATGAATTGACAGCGTCGAGTAAACAAATTTTCCTAATCTTTCTGTTCAAGCGCCATCTAC”, the figure is 0.464; as for “GATGATTGTTCTCCCAGCTGATGAATTTAATCCCTCGAGTAAACAAATTTTCCTAATCTTTCTGTTCAAGCGCCATCTAC”, 0.333; as for “GATGATTGTTCTCCCAGCTGATGAATTCTCCTCTTCGAGTAAACAAATTTTCCTAATCTTTCTGTTCAAGCGCCATCTAC”, 0.198.

As for “GATGATTGTTCTCCCAGCTGATGAATTAGCTGCATCGAGTAAACAAATTTTCCTAATCTTTCTGTTCAAGCGCCATCTAC”, the binding signal (RPM ratio (pull-down/input)) stood at 1.25. As for “GATGATTGTTCTCCCAGCTGATGAATTAATCTAGTCGAGTAAACAAATTTTCCTAATCTTTCTGTTCAAGCGCCATCTAC”, the figure is 0.302; as for “GATGATTGTTCTCCCAGCTGATGAATTAACCCGATCGAGTAAACAAATTTTCCTAATCTTTCTGTTCAAGCGCCATCTAC”, 0.202; as for “GATGATTGTTCTCCCAGCTGATGAATTCATATGCTCGAGTAAACAAATTTTCCTAATCTTTCTGTTCAAGCGCCATCTAC”, 0.869.

With “GATGATTGTTCTCCCAGCTGATGAATTCTCGTATTCGAGTAAACAAATTTTCCTAATCTTTCTGTTCAAGCGCCATCTAC”, the binding signal (RPM ratio (pull-down/input)) was determined as 0.974.

Regarding “GATGATTGTTCTCCCAGCTGATGAATTCTATGGATCGAGTAAACAAATTTTCCTAATCTTTCTGTTCAAGCGCCATCTAC”, the binding signal (RPM ratio (pull-down/input)) was found to be 0.457. As for “GATGATTGTTCTCCCAGCTGATGAATTTTATACATCGAGTAAACAAATTTTCCTAATCTTTCTGTTCAAGCGCCATCTAC”, the figure is 0.598.

As to “GATGATTGTTCTCCCAGCTGATGAATTGCAGCTATCGAGTAAACAAATTTTCCTAATCTTTCTGTTCAAGCGCCATCTAC”, the binding signal (RPM ratio (pull-down/input)) worked out at 1.39. As for “GATGATTGTTCTCCCAGCTGATGAATTGTTCTTTTCGAGTAAACAAATTTTCCTAATCTTTCTGTTCAAGCGCCATCTAC”, the figure is 0.447; as for “GATGATTGTTCTCCCAGCTGATGAATTGAGGGTATCGAGTAAACAAATTTTCCTAATCTTTCTGTTCAAGCGCCATCTAC”, 0.714. As to “GATGATTGTTCTCCCAGCTGATGAATTGGGTGTTTCGAGTAAACAAATTTTCCTAATCTTTCTGTTCAAGCGCCATCTAC”, the binding signal (RPM ratio (pull-down/input)) came to 1.38. For the sequence “GATGATTGTTCTCCCAGCTGATGAATTGCCTCGGTCGAGTAAACAAATTTTCCTAATCTTTCTGTTCAAGCGCCATCTAC”, the binding signal (RPM ratio (pull-down/input)) stood at 0.565. The figure for “GATGATTGTTCTCCCAGCTGATGAATTTGAATTATCGAGTAAACAAATTTTCCTAATCTTTCTGTTCAAGCGCCATCTAC” is 0.846; for “GATGATTGTTCTCCCAGCTGATGAATTCGAGCTATCGAGTAAACAAATTTTCCTAATCTTTCTGTTCAAGCGCCATCTAC” it is 0.48; for “GATGATTGTTCTCCCAGCTGATGAATTACCACGATCGAGTAAACAAATTTTCCTAATCTTTCTGTTCAAGCGCCATCTAC” it is 0.336. As for “GATGATTGTTCTCCCAGCTGATGAATTGCCAACATCGAGTAAACAAATTTTCCTAATCTTTCTGTTCAAGCGCCATCTAC”, the figure is 1.15. As for “GATGATTGTTCTCCCAGCTGATGAATTTATCATTTCGAGTAAACAAATTTTCCTAATCTTTCTGTTCAAGCGCCATCTAC”, the figure is 3.08; as for “GATGATTGTTCTCCCAGCTGATGAATTCTTTCGCTCGAGTAAACAAATTTTCCTAATCTTTCTGTTCAAGCGCCATCTAC”, 0.205; as for “GATGATTGTTCTCCCAGCTGATGAATTCGAAATATCGAGTAAACAAATTTTCCTAATCTTTCTGTTCAAGCGCCATCTAC”, 0.344. With “GATGATTGTTCTCCCAGCTGATGAATTCCGCACATCGAGTAAACAAATTTTCCTAATCTTTCTGTTCAAGCGCCATCTAC”, the binding signal (RPM ratio (pull-down/input)) was found to be 1.16. The figure for “GATGATTGTTCTCCCAGCTGATGAATTGGTTGTCTCGAGTAAACAAATTTTCCTAATCTTTCTGTTCAAGCGCCATCTAC” is 4.48. Take “GATGATTGTTCTCCCAGCTGATGAATTTATTCTTTCGAGTAAACAAATTTTCCTAATCTTTCTGTTCAAGCGCCATCTAC”: the binding signal (RPM ratio (pull-down/input)) came to 0.542. Take “GATGATTGTTCTCCCAGCTGATGAATTTTAAAGTTCGAGTAAACAAATTTTCCTAATCTTTCTGTTCAAGCGCCATCTAC”: the binding signal (RPM ratio (pull-down/input)) came to 0.205. “GATGATTGTTCTCCCAGCTGATGAATTTGGGAGGTCGAGTAAACAAATTTTCCTAATCTTTCTGTTCAAGCGCCATCTAC”: the binding signal (RPM ratio (pull-down/input)) was 0.291. Take “GATGATTGTTCTCCCAGCTGATGAATTGCCGTCGTCGAGTAAACAAATTTTCCTAATCTTTCTGTTCAAGCGCCATCTAC”: the binding signal (RPM ratio (pull-down/input)) stood at 0.833. The figure for “GATGATTGTTCTCCCAGCTGATGAATTTTCCTAATCGAGTAAACAAATTTTCCTAATCTTTCTGTTCAAGCGCCATCTAC” is 0.279; for “GATGATTGTTCTCCCAGCTGATGAATTGATCGCCTCGAGTAAACAAATTTTCCTAATCTTTCTGTTCAAGCGCCATCTAC” it is 0.544. The figure for “GATGATTGTTCTCCCAGCTGATGAATTGGAGAACTCGAGTAAACAAATTTTCCTAATCTTTCTGTTCAAGCGCCATCTAC” is 0.203; for “GATGATTGTTCTCCCAGCTGATGAATTTACCTGATCGAGTAAACAAATTTTCCTAATCTTTCTGTTCAAGCGCCATCTAC” it is 0.352; for “GATGATTGTTCTCCCAGCTGATGAATTGGGTGGCTCGAGTAAACAAATTTTCCTAATCTTTCTGTTCAAGCGCCATCTAC” it is 0.493. The figure for “GATGATTGTTCTCCCAGCTGATGAATTGCAGGGATCGAGTAAACAAATTTTCCTAATCTTTCTGTTCAAGCGCCATCTAC” is 0.546; for “GATGATTGTTCTCCCAGCTGATGAATTAGTGTCGTCGAGTAAACAAATTTTCCTAATCTTTCTGTTCAAGCGCCATCTAC” it is 1.73; for “GATGATTGTTCTCCCAGCTGATGAATTTTCCGGATCGAGTAAACAAATTTTCCTAATCTTTCTGTTCAAGCGCCATCTAC” it is 0.147. Take “GATGATTGTTCTCCCAGCTGATGAATTTGGCAACTCGAGTAAACAAATTTTCCTAATCTTTCTGTTCAAGCGCCATCTAC”: the binding signal (RPM ratio (pull-down/input)) amounted to 5.44. “GATGATTGTTCTCCCAGCTGATGAATTGAAATCGTCGAGTAAACAAATTTTCCTAATCTTTCTGTTCAAGCGCCATCTAC”: the binding signal (RPM ratio (pull-down/input)) amounted to 0.274. For the sequence “GATGATTGTTCTCCCAGCTGATGAATTGGGTACATCGAGTAAACAAATTTTCCTAATCTTTCTGTTCAAGCGCCATCTAC”, the binding signal (RPM ratio (pull-down/input)) turned out to be 0.508.

“GATGATTGTTCTCCCAGCTGATGAATTGGATTGATCGAGTAAACAAATTTTCCTAATCTTTCTGTTCAAGCGCCATCTAC”: the binding signal (RPM ratio (pull-down/input)) turned out to be 0.807.

With “GATGATTGTTCTCCCAGCTGATGAATTATTTAGATCGAGTAAACAAATTTTCCTAATCTTTCTGTTCAAGCGCCATCTAC”, the binding signal (RPM ratio (pull-down/input)) worked out at 1.78. The figure for “GATGATTGTTCTCCCAGCTGATGAATTACCGTGTTCGAGTAAACAAATTTTCCTAATCTTTCTGTTCAAGCGCCATCTAC” is 0.527. As for “GATGATTGTTCTCCCAGCTGATGAATTGCCGACGTCGAGTAAACAAATTTTCCTAATCTTTCTGTTCAAGCGCCATCTAC”, the figure is 0.478; as for “GATGATTGTTCTCCCAGCTGATGAATTCTTAACCTCGAGTAAACAAATTTTCCTAATCTTTCTGTTCAAGCGCCATCTAC”, 0.208.

On to “GATGATTGTTCTCCCAGCTGATGAATTGGCACGTTCGAGTAAACAAATTTTCCTAATCTTTCTGTTCAAGCGCCATCTAC”, for which the binding signal (RPM ratio (pull-down/input)) amounted to 0.464. The figure for “GATGATTGTTCTCCCAGCTGATGAATTCATGTTTTCGAGTAAACAAATTTTCCTAATCTTTCTGTTCAAGCGCCATCTAC” is 1.41; for “GATGATTGTTCTCCCAGCTGATGAATTCGCCAGGTCGAGTAAACAAATTTTCCTAATCTTTCTGTTCAAGCGCCATCTAC” it is 0.286.

Turning to “GATGATTGTTCTCCCAGCTGATGAATTGGACTAATCGAGTAAACAAATTTTCCTAATCTTTCTGTTCAAGCGCCATCTAC”, the binding signal (RPM ratio (pull-down/input)) is 0.267. With “GATGATTGTTCTCCCAGCTGATGAATTAATTCGTTCGAGTAAACAAATTTTCCTAATCTTTCTGTTCAAGCGCCATCTAC”, the binding signal (RPM ratio (pull-down/input)) came out at 0.368. The figure for “GATGATTGTTCTCCCAGCTGATGAATTATTGCGTTCGAGTAAACAAATTTTCCTAATCTTTCTGTTCAAGCGCCATCTAC” is 2.15. As for “GATGATTGTTCTCCCAGCTGATGAATTTCCGGAGTCGAGTAAACAAATTTTCCTAATCTTTCTGTTCAAGCGCCATCTAC”, the figure is 0.172; as for “GATGATTGTTCTCCCAGCTGATGAATTGACATATTCGAGTAAACAAATTTTCCTAATCTTTCTGTTCAAGCGCCATCTAC”, 0.62; as for “GATGATTGTTCTCCCAGCTGATGAATTTTGAATCTCGAGTAAACAAATTTTCCTAATCTTTCTGTTCAAGCGCCATCTAC”, 2.36. As for “GATGATTGTTCTCCCAGCTGATGAATTCAATTTGTCGAGTAAACAAATTTTCCTAATCTTTCTGTTCAAGCGCCATCTAC”, the figure is 2.23; as for “GATGATTGTTCTCCCAGCTGATGAATTTAGATTCTCGAGTAAACAAATTTTCCTAATCTTTCTGTTCAAGCGCCATCTAC”, 0.815. “GATGATTGTTCTCCCAGCTGATGAATTCCAAATATCGAGTAAACAAATTTTCCTAATCTTTCTGTTCAAGCGCCATCTAC”: the binding signal (RPM ratio (pull-down/input)) amounted to 0.564.

With “GATGATTGTTCTCCCAGCTGATGAATTGTCTCTCTCGAGTAAACAAATTTTCCTAATCTTTCTGTTCAAGCGCCATCTAC”, the binding signal (RPM ratio (pull-down/input)) was determined as 0.457. The figure for “GATGATTGTTCTCCCAGCTGATGAATTTCGTGGGTCGAGTAAACAAATTTTCCTAATCTTTCTGTTCAAGCGCCATCTAC” is 0.54.
